Several values for one entry are separate records, joined by “and”; a condition that tells them apart may be missing. Equal entries are not always repeated. Out of some 480,000 compounds screened, about 740 (0.15%) were called active. Inconclusive means that the source gave no clear call. Such entries were picked first, then a sample of the others. No stated cut-off is given here; in the data, active means activity change below about -30%; inconclusive means mostly about -25% to -30%; inactive means weaker than that.
Target: L-lactate dehydrogenase A chain (Homo sapiens) (UniProt P00338)
Assay: qHTS assay for inhibitors of human lactate dehydrogenase;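 further: values are at about 110 or 230 µM; plate controls were DMSO wells for no effect and wells without enzyme for full effect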
Conditions: purified LDHA, NADH/diaphorase-resazurin fluorescence; active compounds read low
Excerpt: LDH is a key glycolytic enzyme that catalyzes the final step in the glycolytic pathway, reducing pyruvate to lactate and regenerating NAD+ equivalents necessary for continued glycolysis. LDHA has been linked to the carcinogenesis and malignancy in numerous forms of cancers and many other diseases. Consequently, both pharma and academia have invested in significant research efforts to identify small molecule therapeutics. Such attempts have been stalled or abandoned due to limited success in discovering potent and drug-like inhibitors that can be utilized to validate LDHA in vivo as a drug target, a necessary step toward advancing such a molecule towards the clinic Towards this goal we designed and performed a quantitative high-throughput screening (qHTS) campaign to discover novel compounds that are potent inhibitors of LDHA enzyme activity and cancer cell line growth.
The assay was optimized to 1536-well plates. Briefly, 3 µL of human lactate dehydrogenase 5 (#A38558H, Meridian Life Science, Inc., Memphis, TN) in LDH assay buffer (200 mM Tris HCl pH 7.4, 100 microM EDTA and 0.01% Tween-20) was added to a black solid bottom 1536-well assay plate (Greiner Bio-One) using a BioRAPTR FRD dispenser (Beckman Coulter, Brea, CA). A 1536-well pintool dispenser outfitted with 20 nL pins (Wako Automation, San Diego, CA) was used to transfer 23 nL of DMSO-solubilized compound (both library and vehicle controls) to each 1536-well assay plate. Following compound transfer, 1 µL of substrate solution containing NADH and sodium pyruvate (Sigma-Aldrich, St. Louis, MO) in LDH assay buffer was dispensed via BioRAPTR FRD to initiate the reaction. Final concentrations in the 4 microL reaction volume were 2 nM LDHA enzyme, 0.06 mM NADH and 0.2 mM sodium pyruvate. Following a 5 minute incubation period at room temperature, 1 µL of detection reagent (C. kluyveri diaphorase (Sigma-Aldrich) and resazurin sodium salt (Sigma-Aldrich) in LDH assay buffer) was added to a total volume of 5 µL. Final concentrations of detection reagents were 0.133 mg/mL diaphorase and 37 µM resazurin. Plates were immediately transferred to a ViewLux microplate imager (PerkinElmer, Waltham, MA), and any resulting resorufin fluorescence was measured (ex540, em590 nm) at 0 and 20 minutes. Fluorescence was normalized using enzyme-free and DMSO-treated control wells on each plate.

Row | SMILES | activity change
1 | CCNC(=S)NNC(=O)c1ccccc1Cl | inconclusive: -25.4%
2 | CCOc1ccccc1Oc1coc2cc(OC(=O)c3ccc4c(c3)OCO4)ccc2c1=O | active: -31.3%
3 | O=C(O)CCCN1C(=O)/C(=C\c2ccc(-c3nc4ccccc4s3)o2)SC1=S | inactive: 0.729%
4 | Cc1ccc(C(CNC(=O)c2oc3ccc(F)cc3c2C)N(C)C)o1 (stereo unspecified) | inconclusive: -25.5%
5 | COc1ccc(C(CNC(=O)CCNS(=O)(=O)c2ccc(Br)cc2)N2CCCC2)cc1 (stereo unspecified) | inactive: 0.232%
6 | Cc1ccc(C(CNC(=O)c2cc(=O)c3cc(Br)ccc3o2)N2CCCCC2)o1 (stereo unspecified) | inconclusive: -26.8%
7 | CCOC(=O)C1CCCCN1Cc1cccc(OC)c1OC (stereo unspecified) | inconclusive: -25%
8 | CCCC1(C)NC(=O)N(Cc2coc(-c3cccs3)n2)C1=O (stereo unspecified) | inconclusive: -29.2%
9 | Cc1nnc(SCC(=O)Nc2ccc(S(N)(=O)=O)cc2)n(N)c1=O | active: -39.2%
10 | COc1cc(CN2CCN(S(=O)(=O)c3ccccc3)CC2)cc(OC)c1OC | inconclusive: -25.1%
11 | CC1CN(CCCCOc2ccc(F)cc2)CC(C)O1 (stereo unspecified) | inconclusive: -25.1%
12 | Cc1c(CC(=O)NCC(=O)O)c(=O)oc2cc3occ(-c4ccccc4)c3cc12 | active: -84.9%
13 | CCN1CCCC1CNCC(=O)Nc1ccc(OC(F)(F)F)cc1 (stereo unspecified) | inconclusive: -29.9%
14 | CCc1ccc(CN2CCN(C(=O)c3ccco3)CC2)cc1 | inconclusive: -28.6%
15 | CN(C)c1ccc(C(=O)Nc2ccc(S(=O)(=O)NC3=NCCCCC3)cc2)cc1 | inconclusive: -28.7%
16 | CCOc1ccccc1NC(=O)N(CC)Cc1cc(=O)[nH]c2c(C)cc(C)cc12 | inconclusive: -28%
17 | Cc1ccc(F)cc1NC(=O)C1CCCCC1 | inconclusive: -26.7%
18 | O=C(COC(=O)CCN1C(=O)/C(=C\C=C\c2ccccc2)SC1=S)Nc1cc(F)ccc1F | inactive: -8.29%
19 | CCN(CC(=O)Nc1ccc(S(=O)(=O)N2CCCC2)cc1)CC(=O)Nc1cccc(OC)c1 | active: -38.2%
20 | COc1ccc(-c2nc(CS(=O)(=O)CC(=O)NCCc3cc(OC)ccc3OC)c(C)o2)cc1 | inconclusive: -25.9%
21 | CCCSc1n[nH]c2nc3c(c(=O)n12)C(C)(CC)Cc1ccccc1-3 (stereo unspecified) | inconclusive: -30%
22 | COc1ccc(/C=C/C(=O)c2ccc(O)cc2)cc1C | inconclusive: -29.2%
23 | CCOC(=O)C1CCCN(C(=O)COc2ccc(S(=O)(=O)N3CCOCC3)cc2)C1 (stereo unspecified) | inactive: -9.71%

Row | SMILES | activity change
24 | COc1cccc2cc(CC(=O)c3ccc(C(C)C)cc3)c(=O)oc12 | inconclusive: -30%
25 | CCOC(=O)/C=C/c1ccc(N)cc1 | inconclusive: -28.7%
26 | O=C(O)c1cc(S(=O)(=O)Nc2ccc3oc(=O)sc3c2)ccc1O | inconclusive: -25.1%
27 | O=C(COc1ccc([N+](=O)[O-])cc1)NNC(=O)Nc1ccc([N+](=O)[O-])cc1 | inconclusive: -26.8%
28 | O=C(O)c1ccccc1NS(=O)(=O)c1cccc(-n2sc3ccccc3c2=O)c1 | active: -70.7%
29 | COc1ccc(CNC(=O)Cc2c(C)c3cc(Cl)c(OC)cc3oc2=O)cc1 | inactive: -2.32%
30 | CCn1c(C)c2c([n+]1CC)CC(C)(C)CC2=O | inconclusive: -26.7%
31 | COCc1[nH]nc2c1C1(C(=O)Nc3ccc(F)cc31)C(C#N)=C(N)O2 (stereo unspecified) | inconclusive: -25%
32 | COc1cccc(-c2nc(NC(C)(C)C)c3ccccc3n2)c1O | inactive: 16.6%
33 | CCN(CC1CCCN(CCc2cccc(OC)c2)C1)C(=O)C=C(C)C (stereo unspecified) | inactive: -1.23%
34 | COc1cc(C(=O)Oc2ccc(C(C)=O)cc2)ccc1C | inconclusive: -29.8%
35 | O=C1CC(=O)N(Cc2ccco2)C(=O)N1 | inconclusive: -27.9%
36 | COc1ccc(CN2CCN(S(=O)(=O)c3ccc(F)cc3)CC2)c(OC)c1OC | inconclusive: -27.3%
37 | C=CCc1cc(Cl)ccc1OCCNCCN1CCOCC1 | inconclusive: -29.4%
38 | CCC(C)(C(=O)NC1CCCCC1)N(Cc1ccco1)C(=O)c1ccccn1 (stereo unspecified) | inactive: 1.71%
39 | COc1ccc(NC(=O)CN(C)CC(=O)Nc2ccccc2SC)cc1 | active: -34.5%
40 | CC(C)NC(=O)c1c(Cl)cccc1Cl | inconclusive: -25.2%
41 | Cc1nc2cc(NC(=O)COc3ccc(Br)cc3F)ccc2o1 | inactive: 4.89%
42 | CCCNC(=S)NC1CC2CCC(C1)N2Cc1ccccc1 (stereo unspecified) | inactive: -4.93%
43 | O=C(NCC(c1cccnc1)N1CCN(c2ccccc2)CC1)OCc1ccccc1 (stereo unspecified) | inactive: -1.64%
44 | Cc1nc(N2CCCCC2)ncc1-c1cc(=O)[nH]c(N2CCc3ccccc3C2)n1 | inactive: -0.525%
45 | Cc1c(S(=O)(=O)NCCc2ccccc2)c(=O)n(C)c(=O)n1C | inactive: -5.28%
46 | O=C(CCC(=O)c1cccs1)OCC(=O)c1ccc(-c2ccccc2)cc1 | inconclusive: -26.1%

Row | SMILES | activity change
47 | Cc1ccsc1/C=N/n1c(=S)[nH]nc(C)c1=O | active: -32.7%
48 | C=CCc1cc(C)ccc1OCCOCCn1ccnc1 | inconclusive: -25.3%
49 | Cc1ccc(NC(=S)NCC(C)(C)N2CCCCC2)cc1Cl | inconclusive: -27.3%
50 | CCOc1ccc(OCC(=O)Nc2ccc(OC)cc2[N+](=O)[O-])cc1 | inconclusive: -28.1%
51 | Cc1cc(C)cc(-n2ccn3cnnc3c2=O)c1 | inconclusive: -25.5%
52 | CC(C)(C)CC(C)(C)NCC(=O)Nc1c2c(nc3ccccc13)CCC2 | inconclusive: -26.3%
53 | O=C(CC1C(=O)N(CCc2ccccc2)c2nc3ccccc3n21)Nc1ccc(F)c(F)c1 (stereo unspecified) | inconclusive: -28.1%
54 | Cc1ccc(Nc2nc(N)c(C(=O)C(C)C)s2)c(C)c1 | inactive: 9.37%
55 | Cc1ccc2nc(C)cc(C(=O)OC(C)C(=O)NCC(C)C)c2c1 (stereo unspecified) | active: -30.4%
56 | COc1ccc(CCCc2nnc(SCC(=O)Nc3ccc(C)c(C)c3)o2)cc1 | inconclusive: -26.6% and inconclusive: -28.3%
57 | Cc1cc(C)c(Nc2cc(S(=O)(=O)O)c(N)c3c2C(=O)c2ccccc2C3=O)c(C)c1 | inconclusive: -25.8%
58 | CC(=O)Nc1cc(-c2cccc(C(=O)N(C)C)c2)cn2c(-c3ccccc3)cnc12 | inactive: 3.29%
59 | CCC(C)NC(=S)N1CCN(C)CC1 (stereo unspecified) | inconclusive: -28%
60 | COc1ccccc1CN1CCN(C(=O)c2ccncc2)CC1 | active: -30%
61 | CC1(C)SC2c3ccccc3C(=O)N2[C@@H]1C(=O)NC1CC1 (stereo partly specified) | inactive: -2.4%
62 | O=C(CN1CCCC1)Nc1c2c(nc3ccccc13)N(Cc1ccccc1)CC2 | inconclusive: -28.2%
63 | O=C(c1ccccc1)c1ccc(OCCCCN2CCCCC2)cc1 | inconclusive: -25.3%
64 | O=C(COC(=O)C1(c2ccc(F)cc2)CCCC1)Nc1cc([N+](=O)[O-])ccc1F | inconclusive: -27.5%
65 | COc1cc(/C=C(\C#N)C(=O)c2ccc(O)c(O)c2)cc(I)c1O | active: -44.5%
66 | CSc1ccccc1NC(=O)CNCCCN1CCOCC1 | active: -36.2%
67 | CCCCCCCCOC(=O)/C(C#N)=C/c1c[nH]c2ccccc12 | inconclusive: -28.1%
68 | CC(C)(C)c1ccc(S(=O)(=O)c2cnc(SCC(=O)Nc3ccc(F)c(Cl)c3)[nH]c2=O)cc1 | active: -49.3%
69 | CCCCCCCCS(=O)CCO (stereo unspecified) | inactive: 0.814%

Row | SMILES | activity change
70 | COc1ccc(CCN(C)Cc2ccc(OCc3ccccc3)c(OC)c2)cc1OC | active: -31.5%
71 | COc1ccc(Br)cc1/C=C/C(=O)Nc1ccc2ccccc2c1 | inactive: -4.75%
72 | CC(=O)N(C)c1ccc(NC(=S)NC(=O)/C=C/c2ccco2)cc1 | inactive: -2.14%
73 | CCOC(=O)N1CCN(Cc2nc3cc(NC(=O)c4ccc(C)cc4)ccc3n2C)CC1 | inconclusive: -29%
74 | COc1cccc(C(=O)Nc2ccc3oc(-c4ccc(F)cc4)cc(=O)c3c2)c1 | active: -35.3%
75 | O=[N+]([O-])c1ccc(C=NNc2ccccc2)cc1 | inactive: -0.186%
76 | CCOc1ccc(-c2nnc(-c3ccccc3)o2)cc1 | inactive: -6.36%
77 | O=C(O)c1ccccc1N/N=C\c1ccnc2ccccc12 | inconclusive: -28.7%
78 | COC(=O)c1ccc(COC(=O)c2ccccc2CC#N)cc1 | inconclusive: -27.7%
79 | C=C1CCC[C@]2(C)C[C@H]3OC(=O)C(CNCCN(CC)CC)[C@H]3CC12 (stereo partly specified) | inconclusive: -26.9%
80 | CCCn1nc(C(=O)N2CCCC2c2cccs2)c2ccccc2c1=O (stereo unspecified) | inconclusive: -26.3%
81 | Cc1ccc(CN2CCC(N3CC(C)OC(C)C3)CC2)cc1 (stereo unspecified) | active: -32.5%
82 | COc1ccc(-c2c(C#N)c(C)nc3c2C(=O)c2ccccc2-3)cc1 | inactive: -0.0259%
83 | COc1ccc(C(=O)NC(=O)CSc2ccccc2Cl)cc1 | inactive: 3.9%
84 | COc1ccc(S(=O)(=O)Nc2ccc(O)c(Sc3ncn[nH]3)c2)cc1 | inactive: -1.73%
85 | Cc1cc(C)c(S(=O)(=O)c2ccccc2)c(OC(=O)c2c(F)cccc2Cl)n1 | active: -58%
86 | Cc1c(C(=O)NCc2ccc(C(F)(F)F)cc2)sc(=O)n1Cc1cccc(F)c1 | inactive: -0.475%
87 | CCOc1ccc(C(C)=O)cc1COc1ccc2c(CC)cc(=O)oc2c1 | inactive: -9.58%
88 | OC(CN1CCOCC1)c1ccc(F)cc1 (stereo unspecified) | inconclusive: -27%
89 | CCOc1ccc2nc(COc3ccc(C)cc3)[nH]c2c1 | inactive: 1.43%
90 | COCCNCCCOc1ccc(C(C)(C)c2ccccc2)cc1 | active: -33%
91 | CN(C)S(=O)(=O)c1ccc(N2CCN(S(=O)(=O)c3ccc(F)cc3)CC2)c(Cl)c1 | inactive: 4.05%
